Variants at the background level are over-represented here.
B1: TPR 5TU (parent)
chain: GGAUCUUCUCGAUCUAACAAAAAAGACAAAUCUGCCACAAAGCUUGAGAGCAUCUUCGGAUGCAGAGGCGGCAGCCUUCGGUGGCGCGAUAGCGCCAACGUUCUCAACUAUGACACGCAAAACGCGUGCUCCGUUGAAUGGAGUUUAUCAUG

Variants of: B1
Experiment: polymerase ribozyme fitness, log enrichment relative to wild type (log ratio); higher = more active; in vitro selection for triplet polymerase activity
How it was run: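 One round of in vitro selection, in triplicate, was applied to PCR-built, transcribed mutant libraries of each subunit of a heterodimeric triplet polymerase ribozyme. The steps were annealing with a biotinylated primer, partner subunit and triplets, incubation frozen at −7 °C, gel excision of extended constructs, streptavidin-bead capture and RT-PCR. Fitness is the logarithm, base 2, of genotype enrichment over wild-type enrichment from inverse-variance-weighted replicate averages of Illumina-sequenced inputs and outputs, keeping genotypes with ≥10 input reads and ≥1 read per output.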

Point of comparison: GGAUCUUCUCGAUCUAAUAAAAAAGACAAAUCUGCCACAAAGCUUGAGAGCGUCUUCGGAUGCAGAGGCGGCAGCCUUCGGUCGCGCGAUAGCGCCAACGUUCUCAACUAUGACACGCAAAACGCGUGCUCCGUUGAAUGGAGUUGAUCAUG [C18U A52G G83C U146G], “polymerase ribozyme fitness (log ratio)” value -2.39. Against it:
- GGAUCUUCUCGAUCUAAUAAAAAAGACAAAUCUGCCACAAAGCUUGAGCGCAUCUUCGGAUGCAGAGGCGGGAGCCUUCGGUGGCGCGAUAGUGCCAACGUUCUCAGCUAUGACACGCAAAACGCGUGCUCCGUUGAAUGGAGUUUAUCAUG [C18U A49C C72G C93U A107G] — lower, ≤ -4.2
- GGAUCUUCUCGAUCUAAUAAAAAAGACAAAUCUGCCACAAAGCUUGAGCGCAUCAUCGGAUGCAGAGGCGGCAGCCUUCGGUGGCGCGAUAGCGCCAACGUUCUCAACUAUGACACGCAAAACGCGUGCUCCGUUGAAUGAAGUUUAUCAUG [C18U A49C U55A G141A] — lower, ≤ -4.2
- GGAUCUUCUCGAUCUAAUAAAAAAGACAAAUCUGCCACAAAGCUUGAGAGCCUCUUCGGAUGCAGAGGCGGCAGCCUUCGUUGGUUCGAUAGCGCCAACGUUCUCAACUAUGUCACGCAAAACGCGUGCUCCGUUGAAUGGAGUUUAUCAUG [C18U A52C G81U C85U G86U A113U] — lower, ≤ -4.2
- GGAUCUUCUCGAUCUAAUAAAAAAGACAAAUCUGCCACAAAGCUUGAGAGCGUCCUCAGAUGCAGAGCCGGCAGCCCUCGGUGGCGGGAUAGCGCCAACGUUCUCAACUAUGACACGCAAAACGCGUGCUCCGUUCAAUGGAAUUUAGCAUG [C18U A52G U55C G58A G68C U77C C87G G136C G143A U148G] — lower, ≤ -4.2
- GGAUCUUCUCGAUCUAAUAAAAAAGACAAAUCUGCCACAAAGCUUGAGAGCUACUUCGGAUGCAGAGGCGGCAGCCUUCGGUGGCGCGAGAGCGACAACGUUCUCAACUAUGACACGCAAAACGCGUGCUCCGUUGAAUGGAGUUUAUCAUG [C18U A52U U53A U90G C95A] — lower, ≤ -4.2
- GGAUCUUCUCGAUCUAAUAAAAAAGACAAAUCUGCCACAAAGCUUGAGAGCAUCUUCGGAUGCAGAGGCGGCAGCCUUCGGUGGCGCGAUAGCGCCAACGUUCUCAACUAUGACACGCAAUACGCGUGCUCCGUUGAAUGGAGUUUAUCAUG [C18U A121U] — higher, -1.1
- GGAUCUUCUCGAUCUAAUAAAAAAGAGAAUUCUGCCACAAAGCUUGAGAGCAUCUUCGGAUGCAGAGGCGGCAGUCUUCGGUGGCGCGAUAGCGCAAACGUUCUAAACUAUGACACGCAAAUCGCGUGCUCCGAUGAAUGGAGUUUAUCAUG [C18U C27G A30U C75U C96A C105A A122U U134A] — lower, ≤ -4.2
- GGAUCUUCUCGAUCUAAUAAAAAAGACAAAUGUGCCACAAAGCUUGAGAGCAUCUUCGGAUGCAGAGGCGGCAGCCUUCGGUGUCGCGAUAGCGCCAACGUUCUCAACUAUGACACGCAACACGCGUGCUCCGUUGAAUGGAGUUUAUCAUG [C18U C32G G84U A121C] — lower, ≤ -4.2
- GGAUCUUCUCGAUCUAAUAAAAAAGACAAAUUUGCCCCAAAGCUUGAGAGCAUAUUCGGAUGCAGAGGAUGCAGCCUUCGGUGGCGCGAUAGCGCCUACGUUCUCAACUAUGACACGCAAAACGCGUGCUCCGUUGACUGGAGUUUAUAAUG [C18U C32U A37C C54A C69A G70U A97U A138C C149A] — lower, ≤ -4.2
- GGAUCUUCUCGAUCUAAUAAAAAAGACAAAUCUGUCUCAAAGCUUGAGAGCAUCUUCGGAUGCAGAGGCGGCAGCCUUCGGUGGCGGGAUAGCGCCAACGUUCUCAACUAUGACACGCAAAACGCUUGCUCCGUUGAAUGGAGUUUAUAAUG [C18U C35U A37U C87G G126U C149A] — lower, ≤ -4.2
- GGAUCUUCUCGAUCUAAUAAAAAAGACAAAUCUGUCACCAAGCUUGAGAGCAUCUUCAGAUGCAGAGGCGGCAGCCUUCGGUGGCGCGAUAGCGCCAACGUUCUCAACUAUGACACGCAAAACGCGUGCUCCGUUGUAUGGAGUUUAUCAUG [C18U C35U A39C G58A A137U] — lower, ≤ -4.2
- GGAUCUUCUCGAUCUAAUAAAAAAGACAAAUCUGCUACAAAACUUGAGAGCAUCUUCGGAUGCAGAGGCGGAAGCCUUCGGUGGAGCGAUAGCGCCAACGUGGUCUACUAUGACACGCAAAACGCGUGCUCCGUUGAAUGGAGUUUAUCAUG [C18U C36U G42A C72A C85A U102G C103G A106U] — lower, ≤ -4.2
- GGAUCUUCUCGAUCUAAUAAAAAAGACAAAUCUGCUACAAAGCUUGAGAGCAUCUUCGGAUGCAGACGCGGCAGCCUUCGGUGACGCGAUAGCGCCAACGUUCUCAUCUAUGACACGCAAAACGCGUGCUCCUUUGAAUGCAGUUUAUCAUG [C18U C36U G67C G84A A107U G133U G141C] — lower, ≤ -4.2
- GGAUCUUCUCGAUCUAAUAAAAAAGACAAAUCUGCUACAAAGCUAGCGAGCAUCUUCGGAUGCAGAGGCGGCAGCCUUCGGUGGCGCGAUAGCGCCAACGUUCUCAACUAUGACACGCAAAACGCGUGCUCCGUUGAAUGGAGUUUAUCAUG [C18U C36U U45A A47C] — lower, ≤ -4.2
- GGAUCUUCUCGAUCUAAUAAAAAAGACAAAUCUGCCAUAGAGCUUGAGAGCAUCAUCGGAUGCAGAGGCGGCAGCAUUCGGUGGCGUGAUAGCGUCAACGUUCUCAACUAUGACACGCAAAACGCGUGCUCCGUUGAAUGGAGUUUAUCAUG [C18U C38U A40G U55A C76A C87U C95U] — lower, ≤ -4.2
- GGAUCUUCUCGAUCUAAUAAAAAAGACAAAUCUGCCACAAAGCUUGAGAGCAUCUUAGGAUGCAGAGGCGGCAGCCUUCGGUGGCGCGAUAGCGCCAACGUUCUCAACUAUGACCCGCAAAACGCGUGCUCCGUUGAAUGGAUUUUAACAUG [C18U C57A A115C G143U U148A] — lower, ≤ -4.2
- GGAUCUUCUCGAUCUAAUAAAAAAGACAAAUCUGCCACAAAGCUUGAGAGCAUCUUCGGAUGCAGAGGCGGUAGCGUUCGGUGGCGCGAUAGCGCCAACGUUCUCAACUAUGACACGCAAAACGCGUGCUCCGUGGAAUGGAGUUUAUCAUG [C18U C72U C76G U135G] — lower, ≤ -4.2
- GGAUCUUCUCGAUCUAAUAAAAAAGACAAAUCUGCCACAAAGCUUGAGAGCAUCUUCGGAUGCAGAGGCGGCAGCAUUCGGUCGCGCGAUAGCGCCAACGUUCUCAACUAUGACACGCAAAACGCGUGCUCCGUUAAAUGGAGUUUACCAUG [C18U C76A G83C G136A U148C] — lower, ≤ -4.2
